Target: dopamine D2 receptor (Homo sapiens, UniProt P14416)
Assay: biochemical
Details: D2 Ki (nM), 0.4 nM [3H]spiperone, CHO-hD2L membranes

Sequence of UniProt P14416 (P14416 whole entry): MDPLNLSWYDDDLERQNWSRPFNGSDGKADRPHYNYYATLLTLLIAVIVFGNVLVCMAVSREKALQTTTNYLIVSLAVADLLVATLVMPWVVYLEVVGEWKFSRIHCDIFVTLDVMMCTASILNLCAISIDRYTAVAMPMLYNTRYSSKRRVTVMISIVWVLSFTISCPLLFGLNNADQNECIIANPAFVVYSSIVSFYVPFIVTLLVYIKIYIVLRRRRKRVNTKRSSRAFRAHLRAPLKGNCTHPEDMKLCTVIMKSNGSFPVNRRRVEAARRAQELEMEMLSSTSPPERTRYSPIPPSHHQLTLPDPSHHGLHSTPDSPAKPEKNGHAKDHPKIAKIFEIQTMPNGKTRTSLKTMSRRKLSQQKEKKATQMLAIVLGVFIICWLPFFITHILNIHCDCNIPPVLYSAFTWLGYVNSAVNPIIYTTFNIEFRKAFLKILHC

SMILES	Ki (Table 2)	Ki (Table 1)
O=C1CCc2ccc(OCCCCN3CCN(c4cccc5nccnc45)CC3)nc2N1 [Example A44′, 7-[4-(4-Quinoxalin-5-yl-piperazin-1-yl)-butoxy]-3,4-dihydro-1H-[1,8]naphthyridin-2-one]	18.6 nM	–
CCc1cccc(N2CCN(CCCCOc3ccc4c(n3)NC(=O)CC4)CC2)n1 [Example A45, 7-{4-[4-(6-Ethyl-pyridin-2-yl)-piperazin-1-yl]-butoxy}-3,4-dihydro-1H-[1,8]naphthyridin-2-one]	–	2.8 nM
CN(C)c1ccc2cccc(N3CCN(CCCCOc4ccc5c(n4)NC(=O)CC5)CC3)c2n1 [Example A45′, 7-{4-[4-(2-Dimethylamino-quinolin-8-yl)-piperazin-1-yl]-butoxy}-3,4-dihydro-1H-[1,8]naphthyridin-2-one]	4.2 nM	–
CNc1ccc2cccc(N3CCN(CCCCOc4ccc5c(n4)NC(=O)CC5)CC3)c2n1 [Example A46′, 7-{4-[4-(2-Methylamino-quinolin-8-yl)-piperazin-1-yl]-butoxy}-3,4-dihydro-1H-[1,8]naphthyridin-2-one]	3.2 nM	–
Cc1ccnc(N2CCN(CCCCOc3ccc4c(n3)NC(=O)CC4)CC2)n1 [Example A47, 7-{4-[4-(4-Methyl-pyrimidin-2-yl)-piperazin-1-yl]-butoxy}-3,4-dihydro-1H-[1,8]naphthyridin-2-one]	–	75.9 nM
O=C1CCc2ccc(OCCCCN3CCN(c4cccc5ccc(=O)[nH]c45)CC3)nc2N1 [Example A47′, 7-{4-[4-(2-Oxo-1,2-dihydro-quinolin-8-yl)-piperazin-1-yl]-butoxy}-3,4-dihydro-1H-[1,8]naphthyridin-2-one]	15.9 nM	–
O=C1CCc2ccc(OCCCCN3CCN(c4cccc5c4NC(=O)CC5)CC3)nc2N1 [Example A48′, 7-{4-[4-(2-Oxo-1,2,3,4-tetrahydro-quinolin-8-yl)-piperazin-1-yl]-butoxy}-3,4-dihydro-1H-[1,8]naphthyridin-2-one]	7.4 nM	–
CN1C(=O)CCc2cccc(N3CCN(CCCCOc4ccc5c(n4)NC(=O)CC5)CC3)c21 [Example A49′, 7-{4-[4-(1-Methyl-2-oxo-1,2,3,4-tetrahydro-quinolin-8-yl)-piperazin-1-yl]-butoxy}-3,4-dihydro-1H-[1,8]naphthyridin-2-one]	7.5 nM	–
O=C1CCc2ccc(OCCCCN3CCN(c4cc(F)cc5c4CCCC5)CC3)nc2N1 [Example A50, 7-{4-[4-(3-Fluoro-5,6,7,8-tetrahydro-naphthalen-1-yl)-piperazin-1-yl]-butoxy}-3,4-dihydro-1H-[1,8]naphthyridin-2-one]	–	0.8 nM
O=C1CCc2ccc(OCCCCN3CCN(c4cccc5c4C(=O)CCC5)CC3)nc2N1 [Example A51, 7-{4-[4-(8-Oxo-5,6,7,8-tetrahydro-naphthalen-1-yl)-piperazin-1-yl]-butoxy}-3,4-dihydro-1H-[1,8]naphthyridin-2-one]	–	0.4 nM
CC1(C)CCc2cccc(N3CCN(CCCCOc4ccc5c(n4)NC(=O)CC5)CC3)c2C1 [Example A53, 7-{4-[4-(7,7-Dimethyl-5,6,7,8-tetrahydro-naphthalen-1-yl)-piperazin-1-yl]-butoxy}-3,4-dihydro-1H-[1,8]naphthyridin-2-one]	–	5.3 nM
O=C1CCc2ccc(OCCCCN3CCN(c4cccc5c4C(=O)C(F)(F)CC5)CC3)nc2N1 [Example A54, 7-{4-[4-(7,7-Difluoro-8-oxo-5,6,7,8-tetrahydro-naphthalen-1-yl)-piperazin-1-yl]-butoxy}-3,4-dihydro-1H-[1,8]naphthyridin-2-one]	–	0.6 nM
O=C1CCc2ccc(OCCCCN3CCN(c4cccc5c4CC(F)(F)CC5)CC3)nc2N1 [Example A55, 7-{4-[4-(7,7-Difluoro-5,6,7,8-tetrahydro-naphthalen-1-yl)-piperazin-1-yl]-butoxy}-3,4-dihydro-1H-[1,8]naphthyridin-2-one]	–	0.2 nM
O=C1CCc2cccc(N3CCN(CCCCOc4ccc5c(n4)NC(=O)CC5)CC3)c2C1 [Example A56, 7-{4-[4-(7-Oxo-5,6,7,8-tetrahydro-naphthalen-1-yl)-piperazin-1-yl]-butoxy}-3,4-dihydro-1H-[1,8]naphthyridin-2-one]	–	2.5 nM
O=C1CCc2ccc(OCCCCN3CCN(c4cccc5c4CC(O)CC5)CC3)nc2N1 (stereo not drawn) [Example A57, 7-{4-[4-(7-Hydroxy-5,6,7,8-tetrahydro-naphthalen-1-yl)-piperazin-1-yl]-butoxy}-3,4-dihydro-1H-[1,8]naphthyridin-2-one]	–	9.4 nM
O=C1CCc2ccc(OCCCCN3CCN(c4cccc5c4CCCC5=O)CC3)nc2N1 [Example A58, 7-{4-[4-(5-Oxo-5,6,7,8-tetrahydro-naphthalen-1-yl)-piperazin-1-yl]-butoxy}-3,4-dihydro-1H-[1,8]naphthyridin-2-one]	–	30.4 nM
O=C1CCc2ccc(OCCCCN3CCN(c4cccc5c4CCCC5(F)F)CC3)nc2N1 [Example A59, 7-{4-[4-(5,5-Difluoro-5,6,7,8-tetrahydro-naphthalen-1-yl)-piperazin-1-yl]-butoxy}-3,4-dihydro-1H-[1,8]naphthyridin-2-one]	–	4.5 nM
O=C1Cc2cccc(N3CCN(CCCCOc4ccc5c(n4)NC(=O)CC5)CC3)c2C1 [Example A61, 7-{4-[4-(2-Oxo-indan-4-yl)-piperazin-1-yl]-butoxy}-3,4-dihydro-1H-[1,8]naphthyridin-2-one]	–	2.2 nM

SMILES	Ki (Table 2)	Ki (Table 1)
O=C1CCc2ccc(OCCCCN3CCN(c4cccc5c4CC(F)(F)C5)CC3)nc2N1 [Example A62, 7-{4-[4-(2,2-Difluoro-indan-4-yl)-piperazin-1-yl]-butoxy}-3,4-dihydro-1H-[1,8]naphthyridin-2-one]	–	0.9 nM
O=C1CCc2ccc(OCCCCN3CCN(c4cccc5c4CCCCC5)CC3)nc2N1 [Example A63, 7-{4-[4-(6,7,8,9-Tetrahydro-5H-benzocyclohepten-1-yl)-piperazin-1-yl]-butoxy}-3,4-dihydro-1H-[1,8]naphthyridin-2-one]	–	35 nM
O=C1CCc2ccc(OCCCCN3CCC(c4cccc5ccccc45)CC3)nc2N1 [Example A64, 7-[4-(4-Naphthalen-1-yl-piperidin-1-yl)-butoxy]-3,4-dihydro-1H-[1,8]naphthyridin-2-one]	–	3.5 nM
O=C1CCc2ccc(OCCCCN3CCN(c4cccc5cc(F)c(F)cc45)CC3)nc2N1 [Example A72, 7-{4-[4-(6,7-Difluoro-naphthalen-1-yl)-piperazin-1-yl]-butoxy}-3,4-dihydro-1H-[1,8]naphthyridin-2-one]	–	3.5 nM
COc1ccc2cccc(N3CCN(CCCCOc4ccc5c(n4)NC(=O)CC5)CC3)c2c1 [Example A73, 7-{4-[4-(7-Methoxy-naphthalen-1-yl)-piperazin-1-yl]-butoxy}-3,4-dihydro-1H-[1,8]naphthyridin-2-one]	–	1 nM
O=C1CCc2ccc(OCCCCN3CCN(c4cccc5ccc(Cl)cc45)CC3)nc2N1 [Example A74, 7-{4-[4-(7-Chloro-naphthalen-1-yl)-piperazin-1-yl]-butoxy}-3,4-dihydro-1H-[1,8]naphthyridin-2-one]	–	4 nM
O=C1CCc2ccc(OCCCCN3CCN(c4cccc5c(Cl)cccc45)CC3)nc2N1 [Example A75, 7-{4-[4-(5-Chloro-naphthalen-1-yl)-piperazin-1-yl]-butoxy}-3,4-dihydro-1H-[1,8]naphthyridin-2-one]	–	23.8 nM
O=C1CCc2ccc(OCCCCN3CCN(c4cccc5cc(Cl)ccc45)CC3)nc2N1 [Example A76, 7-{4-[4-(6-Chloro-naphthalen-1-yl)-piperazin-1-yl]-butoxy}-3,4-dihydro-1H-[1,8]naphthyridin-2-one]	–	8.7 nM
O=C1CCc2ccc(OCCCCN3CCN(c4cccc5cccc(Cl)c45)CC3)nc2N1 [Example A77, 7-{4-[4-(8-Chloro-naphthalen-1-yl)-piperazin-1-yl]-butoxy}-3,4-dihydro-1H-[1,8]naphthyridin-2-one]	–	10.8 nM
CC(=O)c1ccc2cccc(N3CCN(CCCCOc4ccc5c(n4)NC(=O)CC5)CC3)c2c1 [Example A78, 7-{4-[4-(7-Acetyl-naphthalen-1-yl)-piperazin-1-yl]-butoxy}-3,4-dihydro-1H-[1,8]naphthyridin-2-one]	–	1.4 nM
CC(=O)c1ccc2c(N3CCN(CCCCOc4ccc5c(n4)NC(=O)CC5)CC3)cccc2c1 [Example A79, 7-{4-[4-(6-Acetyl-napthalen-1-yl)-piperazin-1-yl]-butoxy}-3,4-dihydro-1H-[1,8]naphthyridin-2-one]	–	15 nM
CC(=O)c1cccc2c(N3CCN(CCCCOc4ccc5c(n4)NC(=O)CC5)CC3)cccc12 [Example A80, 7-{4-[4-(5-Acetyl-naphthalen-1-yl)-piperazin-1-yl]-butoxy}-3,4-dihydro-1H-[1,8]naphthyridin-2-one]	–	23.5 nM
CC(=O)c1ccc(N2CCN(CCCCOc3ccc4c(n3)NC(=O)CC4)CC2)c2ccccc12 [Example A81, 7-{4-[4-(4-Acetyl-naphthalen-1-yl)-piperazin-1-yl]-butoxy}-3,4-dihydro-1H-[1,8]naphthyridin-2-one]	–	24.7 nM
CC(=O)c1ccc2ccccc2c1N1CCN(CCCCOc2ccc3c(n2)NC(=O)CC3)CC1 [Example A82, 7-{4-[4-(2-Acetyl-naphthalen-1-yl)-piperazin-1-yl]-butoxy}-3,4-dihydro-1H-[1,8]naphthyridin-2-one]	–	28.1 nM
N#Cc1ccc2cccc(N3CCN(CCCCOc4ccc5c(n4)NC(=O)CC5)CC3)c2c1 [Example A83, 8-{4-[4-(7-Oxo-5,6,7,8-tetrahydro-[1,8]naphthyridin-2-yloxy)-butyl]-piperazin-1-yl}-naphthalene-2-carbonitrile]	–	2.5 nM
CC(=O)Nc1ccc2cccc(N3CCN(CCCCOc4ccc5c(n4)NC(=O)CC5)CC3)c2c1 [Example A84, N-(8-{4-[4-(7-Oxo-5,6,7,8-tetrahydro-[1,8]naphthyridin-2-yloxy)-butyl]-piperazin-1-yl}-naphthalen-2-yl)-acetamide]	–	3 nM
O=c1ccc2ccc(OCCCCN3CCN(c4cccc5c4OCCC5)CC3)nc2[nH]1 [Example B1′, 7-[4-(4-Chroman-8-yl-piperazin-1-yl)-butoxy]-1H-[1,8]naphthyridin-2-one]	1 nM	–
O=c1ccc2ccc(OCCCCN3CCN(c4cccc(C(F)(F)F)c4Cl)CC3)nc2[nH]1 [Example B2, 7-{4-[4-(2-Chloro-3-trifluoromethyl-phenyl)-piperazin-1-yl]-butoxy}-1H-[1,8]naphthyridin-2-one]	–	2.5 nM

From patent publication US7160888B2, “[1,8]naphthyridin-2-ones and related compounds for the treatment of schizophrenia” (Warner Lambert Company LLC, priority 2003, dated 2007)
